From PubChem BioAssay (Tox21)
Values joined by “and” are separate entries in the source; they are usually repeats but may differ in a detail not shown here. Equal values may be shown once. The shares of active, inactive and inconclusive entries below differ from those in the screen. A potency beside an inconclusive call is a rough fit, not a confirmed value. Active and inactive are the calls of the source. The call rests on the fitted dose curve; in most records, active means well fitted cell-killing curve with a large enough effect in the repeat runs; inconclusive means weak or mixed curves, or effect the other way; inactive means flat fitted curve, though single readings scatter.

test: qHTS assay to identify small molecule antagonists of the constitutive androstane receptor (CAR) signaling pathway - cell viability counter screen (AID 1224837); conditions: HepG2-CYP2B6-hCAR viability, CellTiter-Fluor, 23 h, co-treated with 50 nM CITCO; series mostly up to 92.4 µM; activity change, negative = cytotoxicity: at the top concentration; further: nearly all actives have a fitted effect of over 45% in size
Excerpt: National Center for Advancing Translational Sciences [NCATS]
NIH Chemical Genomics Center [NCGC]
U.S. Environmental Protection Agency [EPA]
National Institutes of Environmental Health Sciences [NIEHS]
National Toxicology Program [NTP]
U.S. Food and Drug Administration [FDA]
The constitutive androstane receptor (CAR) is a nuclear receptor which regulates multiple drug metabolizing enzymes (DMEs) and transporters. Activating CAR will generally increase the transcription and subsequent translation of CYP2B6 and CYP3A4. These two DMEs represent about 50% of the drug metabolizing potential in the body. When CAR is deactivated, the metabolizing potential in the body will decrease, subsequently increasing the toxicity in the body or lowering the therapeutic potential of a pro-drug. Recently, there have also been studies performed indicating CARs role in energy metabolism and cancer therapy. Therefore, inhibiting CARs activity could have a potential effect on diabetes and cancer. Identifying environmental toxins and compounds which modulate CAR, through the use of the Tox21 10K compound collection, will be an important step in determining the toxicity and potential therapeutic effects these factors will have on the human body. To differentiate true CAR antagonists from cytotoxic substances, the assay is multiplexed with a cell viability assay.
Tox21 Assay Protocol Summary:
A double-stable (hCAR and CYP2B6-2.2kb) transfected cell line, derived from human hepatoma (HepG2) cells, was utilized for the duration of the quantitative high-throughput screens. The HepG2-CYP2B6-hCAR cells were dispensed at 2500 cells/4 uL/well in 1536-well white solid bottom plates using a Multidrop Combi. After the assay plates were incubated at 37 C/5% CO2 for 4 hrs, 23 nL of compounds at 15 concentrations (from 5-48 columns) or positive control (from 1 to 4 columns) were transferred to the assay plates using a Pintool station. One uL of CITCO (final concentration = 50 nM) was added, using a Flying Reagent Dispenser, inside each well. After a 23 hr incubation period at 37 C/5% CO2, 1 uL of CellTiter-Fluor reagent was added into each well of the assay plates using a Flying Reagent Dispenser. The fluorescence intensity in the plates was then measured using a ViewLux plate reader.
On the % scale 0 is the no-effect control and ±100 the full control effect; potency means the concentration at half of the fitted maximal effect; tags describe the fitted curve by direction and shape.

SMILES | Potency | activity change, negative = cytotoxicity
Cc1ncc([C@@H](CCCCCCc2ccc3c(n2)NCCC3)CC(=O)O)cn1 | inconclusive: 68.6 µM [cytotoxic, partial curve, poor fit] | –
CCCN(C1CCN(C(=O)C2CCNCC2)CC1)[C@@H]1CCc2ccc(OC)cc2C1 | inconclusive: 30.6 µM [cytotoxic, partial curve, poor fit] | –
O=S(O)O | – | inactive: -3.41% [at 19 µM]
CC(CSC(=O)c1ccccc1)C(=O)N1C[C@@H](Sc2ccccc2)C[C@H]1C(=O)O (stereo not given in full) | – | inactive: 0% [at 19 µM]
Nc1cccnc1N | inconclusive: 54.5 µM [rising, partial curve] | –
CC(C)NCC(O)COc1ccc(CCOCC2CC2)cc1 (stereo not given) | – | inactive: -6.56% [at 42.5 µM]
Cc1cccc(N)n1 | – | inactive: 0.894%
C[C@H]1COc2c(C3(N)CC3)c(F)cc3c(=O)c(C(=O)O)cn1c23 | – | inactive: -6.96% [at 42.5 µM]
O=C1NC(c2ccccc2)(c2ccccc2)C(=O)N1COP(=O)(O)O | – | inactive: 0.987% [at 42.5 µM]
CN=C(NC#N)NCCSCc1csc(N=C(N)N)n1 | – | inactive: -14% [at 42.5 µM]
O=C(CCCCCCC(=O)Nc1ccccc1)NO | inconclusive: 4.22 µM [cytotoxic, full curve] | –
CCCCCCCCCCCCCCCCN(C)C | – | inactive: 4.91% [at 8.39 µM]
CC(C)=CCl | inactive | –
CCCC[C@H]1CN(CC2CCOCC2)C(=O)OC12CCN(C1(C)CCN(C(=O)c3c(C)ncnc3C)CC1)CC2 | – | inactive: 0.338%
CCN(CC)CCOCCOC(=O)C1(c2ccccc2)CCCC1 | inconclusive: 23.7 µM [cytotoxic, partial curve, poor fit] | –
COCC(C)OC(C)=O (stereo not given) | – | inactive: -0.152%
FC(F)(F)C(F)(F)C(F)(F)C(F)(F)C(F)(F)C(F)(F)C(F)(F)C(F)(F)Br | – | inactive: 0.178% [at 42.5 µM]
CC(C)C(=O)OCc1ccccc1 | – | inactive: 3.95%
CCCCCCCC1CCCC1=O (stereo not given) | – | inactive: 1.46%
CC(=O)Nc1ccc(/C=N/NC(N)=S)cc1 | – | inactive: -1.51% [at 42.5 µM]

SMILES | Potency | activity change, negative = cytotoxicity
CC(=O)Nc1ccc(S(N)(=O)=O)cc1 | – | inactive: 0.924%
CCN(CC)S(=O)(=O)c1ccc(C(=O)O)cc1 | – | inactive: 6.01% [at 42.5 µM]
CC(C)OCC1CO1 (stereo not given) | – | inactive: 1.13%
O=C(O)c1[nH]n(-c2ccc(S(=O)(=O)O)cc2)c(=O)c1N=Nc1ccc(S(=O)(=O)O)cc1 | inconclusive: 23.7 µM [cytotoxic, partial curve] and active: 48.7 µM and active: 28.6 µM | –
O/N=C/C=N/O | – | inactive: 0.888%
CNC(=S)N(C)C | inactive | –
C=C[C@H]1CN2CC[C@H]1C[C@H]2[C@H](O)c1ccnc2ccc(OC)cc12 | inconclusive: 30.6 µM [cytotoxic, partial curve, poor fit] | –
CCC(=O)CC(C)CC (stereo not given) | – | inactive: 5.84% [at 0.349 µM]
CNC1(C)C2CCC(C2)C1(C)C (stereo not given) | – | inactive: -12.1% [at 42.5 µM]
CCCCCCCCCCCCCCBr | – | inactive: -2.84%
CC#N | – | inactive: -4.35%
CCOc1ccc(NC(=O)OC(C)C)cc1OCC | – | inactive: -1.79%
CC(=O)O[C@@]12CO[C@@H]1C[C@H](O)[C@@]1(C)C(=O)[C@H](O)C3=C(C)[C@@H](OC(=O)[C@H](O)[C@@H](NC(=O)OC(C)(C)C)c4ccccc4)C[C@@](O)([C@@H](OC(=O)c4ccccc4)[C@H]21)C3(C)C | inconclusive: 5.96 µM [cytotoxic, partial curve, poor fit] | –
CC(=O)Nc1ccc(S(=O)(=O)Nc2ccc([N+](=O)[O-])cc2)cc1 | inconclusive: 29.8 µM [cytotoxic, partial curve, poor fit] | –
COc1ccnc(CS(=O)c2nc3cc(OC(F)F)ccc3[nH]2)c1OC (stereo not given) | – | inactive: 2.9%
CC(C)=CCOC(=O)c1ccccc1 | – | inactive: 0.167%
CCOc1ccccc1OCC1CNCCO1 (stereo not given) | – | inactive: 2.66% [at 42.5 µM]
CCCCOC(=O)[C@@H](C)Oc1ccc(Oc2ccc(C(F)(F)F)cn2)cc1 | – | inactive: 1.09%
CC1(C)SC(C)(C)SC(C)(C)S1 | – | inactive: 1.87%
COC(=O)c1cc(Cl)ccc1[N+](=O)[O-] | – | inactive: 0.689%
